Hit rate of the full screen: of about 310,000 compounds, about 14,000 (4.5%) showed an effect of 50% or more. Effects have a minus sign here. Some of the results follow.

The results in this text go back to article PMC4336329 (PLoS ONE, 2015).
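Further: peak tail current of the secondary pulse compared with the same well before compound.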

Sequence of human ether-à-go-go-related gene (hERG) potassium channel (Q12809 whole entry, looked up): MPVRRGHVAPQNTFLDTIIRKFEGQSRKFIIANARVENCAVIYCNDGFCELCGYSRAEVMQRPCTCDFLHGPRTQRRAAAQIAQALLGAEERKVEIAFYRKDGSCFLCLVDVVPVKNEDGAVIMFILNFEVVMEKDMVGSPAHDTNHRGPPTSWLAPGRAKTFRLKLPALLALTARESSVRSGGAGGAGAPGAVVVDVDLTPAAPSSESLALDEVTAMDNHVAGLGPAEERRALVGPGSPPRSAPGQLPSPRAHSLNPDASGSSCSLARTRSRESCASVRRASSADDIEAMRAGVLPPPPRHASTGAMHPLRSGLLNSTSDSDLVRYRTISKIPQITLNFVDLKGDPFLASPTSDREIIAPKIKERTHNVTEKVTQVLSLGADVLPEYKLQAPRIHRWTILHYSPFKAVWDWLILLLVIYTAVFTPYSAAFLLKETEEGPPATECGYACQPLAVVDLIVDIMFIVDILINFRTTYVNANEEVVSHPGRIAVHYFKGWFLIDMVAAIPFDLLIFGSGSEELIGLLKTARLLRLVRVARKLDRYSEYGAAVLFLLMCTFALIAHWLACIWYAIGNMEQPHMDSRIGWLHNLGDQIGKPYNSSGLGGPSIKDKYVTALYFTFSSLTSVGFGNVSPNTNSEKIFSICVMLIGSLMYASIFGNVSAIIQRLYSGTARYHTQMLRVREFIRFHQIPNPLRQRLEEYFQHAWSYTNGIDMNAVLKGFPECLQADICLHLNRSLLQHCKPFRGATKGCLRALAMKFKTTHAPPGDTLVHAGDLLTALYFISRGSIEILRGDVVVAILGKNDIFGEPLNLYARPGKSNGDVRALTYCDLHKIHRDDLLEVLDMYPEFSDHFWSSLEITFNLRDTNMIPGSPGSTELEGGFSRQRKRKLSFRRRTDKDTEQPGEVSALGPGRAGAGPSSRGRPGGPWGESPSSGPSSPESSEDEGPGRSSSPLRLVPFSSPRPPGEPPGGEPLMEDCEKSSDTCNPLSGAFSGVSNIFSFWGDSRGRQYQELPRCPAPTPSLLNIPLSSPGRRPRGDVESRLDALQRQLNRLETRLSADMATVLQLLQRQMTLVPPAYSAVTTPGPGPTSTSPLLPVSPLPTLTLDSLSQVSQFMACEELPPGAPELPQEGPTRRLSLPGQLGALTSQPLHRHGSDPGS

This experiment concerns the target human ether-à-go-go-related gene (hERG) potassium channel (human, UniProt Q12809). The experiment can be described thus: primary screen, population patch clamp on CHO cells stably expressing hERG.
Consider `COc1ccc(C/C(N)=N/O)cc1`, for which the “hERG current change (%, negative = inhibition) at 10uM” value turned out to be 9.96%. The figure for `CCn1nnc(C(=O)O)c1C(=O)O` is -6.51%; for `COc1cccc(CN(C(=O)c2cc3ccccc3oc2=O)C2CC2)c1` it is -14.8%; for `CC(C)=CC(=O)OCC(=O)Nc1nc(C)c(Cl)cc1Cl` it is 0.219%. For `COc1cc(CNCCNCC(C)O)ccc1OCc1ccc(Cl)nc1` (stereo not drawn), the “hERG current change (%, negative = inhibition) at 10uM” value was -8.7%. In the case of `Cc1ccc(NC(=O)CCNS(=O)(=O)c2ccc3c(c2)oc(=O)n3C)c(C)c1` it was -0.0525%. For `O=C(CC1CCCCC1)NCCCN1CCOCC1`, the “hERG current change (%, negative = inhibition) at 10uM” value was -0.948%.

Take `Cc1ccc(S(=O)(=O)NCCC(=O)N2CCOCC2)cc1C`: the “hERG current change (%, negative = inhibition) at 10uM” value is listed as -5.97%. The figure for `C/C(=N\Nc1nc(C(C)(C)C)cs1)c1ccc(O)cc1` is 9.95%; for `Cc1ccc(CNC(=O)Cc2noc3ccccc23)cc1` it is 24.7%. The figure for `O=C(Nc1ccc2c(c1)C(=O)N(CC1CCCO1)C2=O)c1cccc(Br)c1` (stereo not drawn) is -33.2%; for `CCN(CC)S(=O)(=O)c1ccc(C(=O)Oc2cc(C)[nH]c(=O)c2[N+](=O)[O-])cc1` it is 12.9%; for `COc1ccc(/C=C2\SC(=S)N(CCCC(=O)N3CCOCC3)C2=O)cc1OC` it is -0.193%.

As for `Cc1ccc2cc(/C=C(\C#N)C(N)=O)c(N3CCCCC3)nc2c1`, the “hERG current change (%, negative = inhibition) at 10uM” value was 8.3%.

As for `O=C(Nc1ccc(N2CCN(C(=O)c3ccco3)CC2)cc1)c1ccc(Br)cc1`, the “hERG current change (%, negative = inhibition) at 10uM” value worked out at 11.4%.

Take `COC(=O)c1cccc(S(=O)(=O)N2CCC(C)CC2)c1`: the “hERG current change (%, negative = inhibition) at 10uM” value is on record as -4.23%. For the compound `COc1cccc(-c2nc3ccccc3s2)c1O`, the “hERG current change (%, negative = inhibition) at 10uM” value was found to be 7.97%. For the compound `CCOC(=O)Cc1cc(=O)n2[nH]c(-c3ccc(Cl)cc3)cc2n1`, the “hERG current change (%, negative = inhibition) at 10uM” value is on record as -20.4%. As to `CCN(CC)c1ccc(/C=N/NS(=O)(=O)c2ccc(CNC(C)=O)cc2)cc1`, the “hERG current change (%, negative = inhibition) at 10uM” value is reported as 13.2%. The figure for `CCOc1ccc(NC(=O)CCSc2nnc(C)s2)cc1` is -5.41%; for `O=C(COC(=O)c1ccc(S(=O)(=O)NCc2ccco2)cc1)Nc1ncc(Cl)cc1Cl` it is -2.54%; for `CCn1c(-c2ccco2)nc2ccccc21` it is -10.6%.

Turning to `CCCc1cc(=O)[nH]c(SCC(=O)N2CCN(S(=O)(=O)c3ccccc3)CC2)n1`, the “hERG current change (%, negative = inhibition) at 10uM” value is 13.8%. In the case of `O=C(CSc1nc2ccccc2c(=O)[nH]1)Nc1ccc(S(=O)(=O)N2CCCC2)cc1` it was 3.61%; in that of `CCCNC(=O)Cn1c2ccccc2c2nc(=O)cc(C)n21`, 8.15%; in that of `O=C(Nc1ccc(N2CCCC2)c(Cl)c1)c1cccc(-c2cc3ccccc3oc2=O)c1`, 7.73%. In the case of `Fc1cccc(CSc2nnc3c(n2)[nH]c2ccccc23)c1` it was 13.8%. In the case of `COCCn1nnnc1C(c1ccc(O)c(OC)c1)N1CCc2ccccc2C1.Cl` (stereo not drawn) it was 3.51%. Regarding `COC(=O)CNC(=O)C1CCN(C(=O)OCc2ccccc2)CC1`, the “hERG current change (%, negative = inhibition) at 10uM” value worked out at 16.2%. The figure for `O=C(COC(=O)[C@@H]1CC(O)CN1S(=O)(=O)c1ccccc1[N+](=O)[O-])c1ccccc1` (stereo partly drawn) is -2.75%; for `O=C(CC1C(=O)NCCN1CC1CCCCC1)NCc1ccc(Cl)cc1` (stereo not drawn) it is -20.3%. Take `O=C(NCc1ccc(F)cc1)c1cc2ccccn2n1`: the “hERG current change (%, negative = inhibition) at 10uM” value was -14.1%. The figure for `COc1cc2c(OC)cccc2cc1C(=O)O` is 1.76%.

In the case of `COc1ccc(OC)c2c(N3CC(C)OC(C)C3)cc(C(F)(F)F)nc12` (stereo not drawn), the “hERG current change (%, negative = inhibition) at 10uM” value was -10.3%. In the case of `O=C(Nc1nccs1)c1cncc(Br)c1` it was -4.53%. The figure for `Cc1nn(CCCC(=O)NC(C)c2ccccc2)c(=O)c2nn(-c3ccccc3)c(C)c12` (stereo not drawn) is -33.9%. Turning to `COc1cccc(Nc2nc(-c3sc(NC(=O)c4ccco4)nc3C)cs2)c1`, the “hERG current change (%, negative = inhibition) at 10uM” value is recorded as 19.5%. With `Cc1ccc(C(=O)N/C(=C\c2sccc2C)C(=O)NCCCN2CCOCC2)cc1`, the “hERG current change (%, negative = inhibition) at 10uM” value was -17.7%. The figure for `C=CCn1c(C)cc(C)c(C#N)c1=O` is 9.6%; for `O=C(O)C1C2CCC(O2)C1C(=O)Nc1ccc(Cl)cc1` (stereo not drawn) it is 20.7%. In the case of `O=C(CC(c1ccc(F)cc1)c1ccco1)Nc1nccs1` (stereo not drawn) it was 0.85%. Consider `CCOC(=O)Cn1nc(C)c(NC(=O)COc2ccc(OC)cc2)c1C`, for which the “hERG current change (%, negative = inhibition) at 10uM” value was 0.252%. In the case of `c1ccc2c(c1)OCc1cn[nH]c1-2` it was 1.49%; in that of `Cc1ccc(N(C(C)C(=O)Nc2c(C)n(C)n(-c3ccccc3)c2=O)S(C)(=O)=O)cc1C` (stereo not drawn), 11.5%. The figure for `CC(=O)c1cccc(CN2CCN(CC=C(C)C)C(CCO)C2)c1` (stereo not drawn) is -8.1%. Regarding `O=[N+]([O-])c1ccc(NCCCNS(=O)(=O)c2ccccc2)cc1`, the “hERG current change (%, negative = inhibition) at 10uM” value was -64.7%. For the compound `COc1ccc(C2CC(c3ccc(F)cc3)=NN2c2ccccc2)cc1OC` (stereo not drawn), the “hERG current change (%, negative = inhibition) at 10uM” value was found to be 1.29%. The figure for `CC1CCCCN1CCNC(=O)c1cc2c(=O)n(C)c3ccccc3c2n1C` (stereo not drawn) is -2.27%. As for `CCCN(C(=O)CSCc1ccc(Cl)cc1)c1c(N)n(Cc2ccccc2)c(=O)[nH]c1=O`, the “hERG current change (%, negative = inhibition) at 10uM” value is 11.4%. With `O=C(COc1ccc(F)cc1Br)N1CCN(c2ncccn2)CC1`, the “hERG current change (%, negative = inhibition) at 10uM” value is given as -20.8%. The figure for `O=C(NCCOc1cccc2cccnc12)c1cccs1` is -12.8%; for `CCOc1cc(/C=N/NC(=O)CN(CCc2ccccc2)S(=O)(=O)c2ccc(NC(C)=O)cc2)ccc1O` it is 2.38%. The figure for `CSc1nc(-c2ccccc2)nn1C(=O)c1ccc(C)cc1` is 3.97%.

Turning to `COc1ccc(-c2cc(C(=O)N/N=C(\C)c3cccnc3)c3cc(C)ccc3n2)cc1OC`, the “hERG current change (%, negative = inhibition) at 10uM” value stood at 19.9%. The figure for `CCN(Cc1ccc(NC(C)=O)cc1)CC1CCCN(CCc2cccc(OC)c2)C1` (stereo not drawn) is -30.3%. Turning to `Cc1nnc(CN(C)Cc2cn[nH]c2-c2ccc(-c3ccccc3)cc2)o1`, the “hERG current change (%, negative = inhibition) at 10uM” value was -15.1%. Turning to `CC1=C(C(=O)N2CCCCC2)C(c2cccs2)C2=C(CCCC2=O)N1` (stereo not drawn), the “hERG current change (%, negative = inhibition) at 10uM” value came out at 18.5%.
